From PubChem BioAssay AID463173 (ICCB-Longwood Screening Facility, Harvard Medical School, 2010)
Screen size: about 52,000 compounds; about 1,700 (3.3%) were called active. Cut-off read from the data, not from the text of the source: active = survival mostly below about 52% (no sharp cut-off); inactive = mostly above about 56%. The list shows a part of the results.

Each compound was assayed on Wild type (assay: growth inhibition of S. aureus wild type versus tarO mutant, primary screen, teichoic acid synthesis inhibitors, RN4220, OD600 (AID 463173)). Conditions: S. aureus RN4220 wild type/DeltatarO growth, OD600, 18 h, hits give low values, screened at 18.75 µg/mL (by protocol).
With CCC(NC(=O)Nc1cc(OC)ccc1OC)c1c(-n2cccc2)sc2c1CCN(CC)C2 (stereo not given) the survival was inactive: 75%. With Cc1oc2ccc(O)c(CN3CCN(C)CC3)c2c1C(=O)Nc1cccc(C(F)(F)F)c1 the survival was inactive: 92%. With O=C(CSc1nc2c([nH]c3ccccc32)c(=O)n1-c1cccc(Cl)c1)N1CCOCC1 the survival was inactive: 65%. For CCCCCC(=O)Nc1ccc(NC(=O)c2cc3ccccc3o2)c(OC)c1, the survival was inactive: 91%. For COc1cccc(CNC(=O)C2(c3cccs3)CCOCC2)c1, the survival was inactive: 73%. CC(C)c1nc2n(n1)C1(CCCCC1)[C@@H]1CCCC[C@@H]1N2 was tested, and the survival was inactive: 123%. With CCOC(=O)c1c(NC(=O)CSc2cn(CCNC(=O)c3ccccc3OC)c3ccccc23)sc2c1CCC2 the survival was inactive: 152%. With COc1ccc(-c2nc3c4ccccc4n(CC(=O)N4CCN(c5ccc(F)cc5)CC4)c(=O)n3n2)cc1 the survival was inactive: 127%. For CCOc1ccc(-n2c(CC)nc3c(cnn3-c3ccc(Cl)cc3)c2=O)cc1, the survival was inactive: 63%. For O=C(Cn1c(=O)c2ccccc2n(CC(=O)Nc2ccc(F)cc2)c1=O)NCCc1ccccc1, the survival was inactive: 127%. For Cc1cccc(Cn2c(C)c(CNC3CCCCCC3)c(C(=O)O)c2C)c1, the survival was inactive: 88%. With COc1c(Cl)cc(C(=O)N(Cc2ccc(C)o2)C2CCS(=O)(=O)C2)cc1Cl (stereo not given) the survival was inactive: 91%. In the case of Cc1oc(-c2cccc(Cl)c2)nc1CN1CCCC(C(=O)N2CCN(c3ccc(F)cc3)CC2)C1 (stereo not given), the survival is reported as inactive: 130%. With COc1ccc(OC)c(S(=O)(=O)N2CCC(C(=O)NCCC3=CCCCC3)CC2)c1 the survival was inactive: 104%. In the case of COc1cccc(C(=O)c2cn(CC(=O)NCCc3ccccc3)c3nc(C)ccc3c2=O)c1, the survival is reported as inactive: 64%. In the case of CCCN(CCC)CCCNC(=O)Cn1cc2c(n1)-c1c(oc(C(=O)N3CCCC3)c1C)CC2, the survival is reported as inactive: 90%. In the case of Cc1[nH]c(=O)[nH]c(=O)c1NC(=O)c1ccccc1, the survival is reported as inactive: 115%. In the case of CCCNC(=O)C(CC)n1nc(CC)n2c(cc3oc(C)cc32)c1=O (stereo not given), the survival is reported as inactive: 113%. CCOC(=O)c1cc2c(=O)n3ccccc3nc2n(CC2CCCO2)c1=NC(=O)c1ccc(OC)cc1OC (stereo not given) was tested, and the survival was inactive: 70%. With O=C(OC1CSc2nc3ccccc3n2C1)c1ccccc1Cl (stereo not given) the survival was inactive: 121%. For CCOc1ccc(NC(=O)NCc2ccc3c(c2)CCN3C(C)=O)cc1, the survival was inactive: 83%. In the case of Cc1cc(C)n(-c2nc3ccccc3nc2N2CCN(c3cccc(C)c3C)CC2)n1, the survival is reported as active: -1%. In the case of COc1cccc(NC(=O)Cn2c(=O)n(CCc3ccccc3)c(=O)c3c4c(sc32)CN(C(C)=O)CC4)c1, the survival is reported as inactive: 78%. With CCCNC(=O)C1CCN(S(=O)(=O)c2ccccc2)CC1 the survival was inactive: 94%. For Cc1ccc(C(=O)c2oc3ccccc3c2NC(=O)COc2ccccc2Cl)cc1, the survival was inactive: 118%. For COCCNC(=S)N1CCC(NC(=O)Nc2ccc(F)cc2)CC1, the survival was inactive: 110%. With CCS(=O)(=O)N1CCC(NC(=O)C(Cc2ccc(OC)c(OC)c2)NC(C)=O)CC1 (stereo not given) the survival was inactive: 86%. For CCc1cccc(NC(=O)c2nc(-c3ccncc3)no2)c1, the survival was inactive: 101%. CCOc1ccc(C(=O)Nc2ccc(-c3nc4cc(C(C)C)ccc4o3)cc2)cc1Cl was tested, and the survival was inactive: 90%. With COc1ccc(C2=NN(CC(=O)NCc3ccccc3Cl)C(=O)CC2)cc1 the survival was inactive: 153%. For Cc1ccc(CCNC(=O)c2c(C)oc3ncnc(N4CCOCC4)c23)cc1, the survival was inactive: 131%. With Fc1cccc(NCc2cccn2-c2nnc(N3CCOCC3)s2)c1 the survival was inactive: 77%. With COc1cccc(CNC(=O)N2CCC(CN3CCC(C)CC3)CC2)c1 the survival was inactive: 81%. For Cc1ccc(NCc2cccn2-c2nnc(N3CCC(C(=O)NCCc4ccccc4)CC3)s2)cc1, the survival was inactive: 85%. Cc1ccc(-c2cc(C(F)F)n3ncc(C(=O)NCC4CCCO4)c3n2)cc1 (stereo not given) was tested, and the survival was inactive: 115%. For Cc1ccc(CN(C(=O)COc2ccc(C(C)(C)C)cc2)C2CCS(=O)(=O)C2)o1 (stereo not given), the survival was inactive: 85%. With COc1ccc(-c2c3c(nc4sc(C(=O)Nc5ccc(Cl)cc5)c(N)c24)CC(C)(C)CC3=O)cc1 the survival was inactive: 92%. COc1cc2cc(CNc3ccc(C)cc3)c(=O)n(CC(=O)Nc3ccc(C(C)C)cc3)c2cc1OC was tested, and the survival was inactive: 118%. For COc1ccc(NC(=O)CSc2nc(-c3ccc(OC)cc3)[nH]c2-c2ccc(F)cc2)cc1, the survival was inactive: 92%. For COc1ccccc1NC(=O)c1ccccc1NC(=O)c1ccccc1, the survival was inactive: 56%. For CN(C)c1ccc(CNC(=O)CCC(=O)N2Cc3ccccc3Oc3ncccc32)cc1, the survival was inactive: 77%. With CCn1ccc2cc(S(=O)(=O)N3CCC(C(=O)NCCc4ccc(SC)cc4)CC3)ccc21 the survival was inactive: 99%. With Clc1ccc(CNc2nc3ccccc3c3nc(-c4cccnc4)nn23)cc1 the survival was inactive: 86%. CCc1cccc(C)c1NC(=O)CN1C(=O)c2c(c3ccccc3n2C)C1c1ccc(OC)cc1 (stereo not given) was tested, and the survival was inactive: 70%. With COCCc1nn2c(=O)cc(COC(=O)c3cccs3)nc2s1 the survival was inactive: 90%. In the case of Cc1occc1C(=O)NN=C1c2ccccc2-c2ccccc21, the survival is reported as inactive: 121%. CCOc1ccccc1NC(=O)CN(CCc1ccccc1)S(=O)(=O)c1ccc(C)cc1 was tested, and the survival was inactive: 101%. In the case of Cn1nnc2c(N3CCCCC3)ncnc21, the survival is reported as inactive: 88%. In the case of COc1cccc(CCNC(=O)c2c(O)nc3cc(C)ccn3c2=O)c1, the survival is reported as inactive: 83%. With Cc1c(NC=O)c(=O)n(-c2ccccc2)n1C the survival was inactive: 107%. With COc1ccc(-c2nc(CCNC(=O)c3cccs3)cs2)cc1OC the survival was inactive: 159%. For CCCCN(C)C(=O)CN1C(=O)CCn2nc(-c3cn(C)c4ccccc34)cc21, the survival was inactive: 128%. CCc1ccccc1NC(=O)C(NS(=O)(=O)c1ccc2c(c1)CCC(=O)N2)c1ccccc1 (stereo not given) was tested, and the survival was inactive: 83%. For COCCCNC(=O)Nc1cc(C(=O)NCc2ccc(OC)cc2)ccc1N1CCCC1, the survival was inactive: 93%. Cc1ccc2c(c1)-c1c(ssc1=S)C(C)(C)N2C(=O)CN1CCOCC1 was tested, and the survival was inactive: 124%. With COC(=O)c1ccccc1NC(=O)c1ccc2c(c1)CCN2S(=O)(=O)c1ccc(C)cc1 the survival was inactive: 87%. For O=c1cc(-c2ccccc2)n2c(SCc3ccc([N+](=O)[O-])cc3)nnc2[nH]1, the survival was inactive: 71%. O=C1OC(c2ccc(Br)o2)=N/C1=C/c1ccco1 was tested, and the survival was inactive: 115%. With Cc1ccc(NC(=O)C2=C(C(=O)O)CCCC2)cc1Br the survival was inactive: 94%. With O=C(O)Cn1nc(N2CCN(c3ccc(F)cc3)CC2)ccc1=O the survival was inactive: 94%. For CCc1ccc(C(=O)c2cnc3ccc(C)cc3c2S(=O)(=O)c2ccc(OC)cc2)cc1, the survival was inactive: 128%. In the case of C=CCN1C=C/C(=C\C=C(C#N)C#N)c2ccccc21, the survival is reported as inactive: 102%. In the case of COc1cc(OC)c(NC(=O)C2=C(C)C(=O)OC23CCCCC3)cc1Cl, the survival is reported as inactive: 82%. In the case of CC(C)(O)c1cc(=N)sc2nc3ccccc3n12, the survival is reported as inactive: 107%. In the case of COc1ccccc1CNC(=O)c1cc(Sc2cccc(Cl)c2)nc2ccccc12, the survival is reported as inactive: 128%. In the case of O=C(CCCn1c(=O)c2sccc2n(Cc2ccc(F)cc2Cl)c1=O)NCc1ccc2c(c1)OCO2, the survival is reported as inactive: 90%. In the case of CCCCc1ccc(C(=O)Nc2ccc3nc(N(CC)CC)cc(C)c3c2)cc1, the survival is reported as inactive: 118%. With COc1ccc2cc(CNc3ccc(C)cc3)c(=O)n(CC(=O)Nc3ccc(OC)c(Cl)c3)c2c1 the survival was inactive: 70%. With Cc1ccc2c(c1)N(C(=O)N1CCC(C(=O)NCCC3=CCCCC3)CC1)CC(C)O2 (stereo not given) the survival was inactive: 85%. With Cc1c(C(=O)N2CCCC2)oc2c1-c1nn(CC(=O)NCc3cccc(F)c3)cc1CC2 the survival was inactive: 85%. For CCNC(=O)c1cnc2sc(N3CCC(C)CC3)nn2c1=O, the survival was inactive: 83%. With O=C(Nc1cccc(Cl)c1)c1ccc2nc(Cc3ccccc3)oc2c1 the survival was inactive: 71%. For OCc1cnc(SCc2cccc(F)c2)n1Cc1ccc(F)cc1, the survival was inactive: 159%. For Cc1ccccc1Nc1ncnc2c1c(-c1ccccc1)cn2-c1ccc(F)cc1, the survival was inactive: 71%. In the case of O=C(CCc1nc2cccnc2n1Cc1ccccc1)NCc1cccc(Cl)c1, the survival is reported as inactive: 71%. With Cc1ncc(COC(=O)C(C)C)c2cc(C(=O)Nc3ccccc3C(F)(F)F)c(=O)oc12 the survival was inactive: 159%. With CCN(CC)CCCNC(=O)CCc1c(C)n(CC)c2cc(-c3ccccc3OC)nn2c1=O the survival was inactive: 78%. For CCCCn1c(CNC(=O)C23CC4CC(CC(C4)C2)C3)nnc1SCC(=O)Nc1ccccc1, the survival was inactive: 85%. In the case of Cc1cccc(N2C(=O)CS(=O)(=O)C23C(=O)N(C)c2ccccc23)c1 (stereo not given), the survival is reported as inactive: 77%. CN1c2ccc(Cl)cc2-c2nc(SCC(=O)Nc3cc(F)ccc3F)ncc2S1(=O)=O was tested, and the survival was inactive: 68%. With COC(=O)NNC(=O)C1CCC(C)CC1 (stereo not given) the survival was inactive: 68%. For O=C(c1ccco1)N1CCN(c2nc3ccc(Cl)cc3s2)CC1, the survival was inactive: 78%. In the case of CCn1ccc2cc(S(=O)(=O)N3CCC(C(=O)NCCOC)CC3)ccc21, the survival is reported as inactive: 47%. For CCc1nc2ccc(C(=O)NCCc3ccc(OC)c(OC)c3)cc2nc1CC, the survival was inactive: 78%. For CCOc1ccccc1CNC(=O)c1[nH]c2ccccc2c1Sc1ccccc1, the survival was inactive: 81%. With NC(=S)N(c1ccccc1)c1ccccc1 the survival was inactive: 108%. CCN1CCN(CCCNC(=O)c2cc3c(s2)-c2c(C)cccc2OC3)CC1 was tested, and the survival was inactive: 87%. In the case of O=S(=O)(c1ccc(-c2cc(C(F)(F)F)on2)s1)N1CCN(c2cccc(Cl)c2)CC1, the survival is reported as inactive: 128%. In the case of Cc1nn2c(C(F)(F)F)cc(-c3ccc(OC(C)C)cc3)nc2c1C#N, the survival is reported as inactive: 75%. In the case of CCC(CC)NC1CCN(Cc2ccccc2)CC1, the survival is reported as inactive: 98%.
